Data: publication PMC7819943, “Rice protein-binding microarrays: a tool to detect cis-acting elements near promoter regions in rice”
Some of the results follow.

Each sequence was assayed against T1, OsWOX13 (Oryza sativa, UniProt Q5QMM3 1-267) (assay: protein-binding microarray (RPBM); PBS, 2% BSA, 51.3 ng/ul salmon testes DNA, 50 uM zinc acetate, 200 nM TF, 25 C, 1 h; high values mean tight binding). Details: protein: recombinant; tags: N-terminal polyhistidine and DsRed monomer fusion (pET32a); label: CyDye5-dUTP incorporated in the synthesized complementary strand; 3' TTTTT single-stranded linker to array surface; dsDNA, one strand shown.
T1 sequence: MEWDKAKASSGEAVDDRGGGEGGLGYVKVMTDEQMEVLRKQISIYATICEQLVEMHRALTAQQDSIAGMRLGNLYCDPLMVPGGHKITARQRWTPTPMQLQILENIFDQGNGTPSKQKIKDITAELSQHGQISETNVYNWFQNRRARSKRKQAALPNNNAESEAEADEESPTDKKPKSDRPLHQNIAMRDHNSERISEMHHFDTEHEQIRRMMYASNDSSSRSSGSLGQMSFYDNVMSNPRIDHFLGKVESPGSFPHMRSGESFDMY
Outline: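 Binding signal is reported as fluorescence intensity per feature (arbitrary units) from an Axon 4000B scanner. Incubation used 200 nM of each Ni–NTA-purified, N-terminally polyhistidine- and DsRed-fused transcription factor from E. coli BL21-CodonPlus on a double-stranded custom Agilent array for 1 h at 25 °C, with 50 µM zinc acetate in the buffer, followed by washing.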

| Sequence | binding signal |
| --- | --- |
| GGCTGATTGTGTAATAAAGCCCCGTCTGCAGGCGGCGGACCGGAGTCACCTAGTGCAG | 34500 fluorescence intensity (a.u.) |
| CTAATTGAATAATCAAAATTTTAATCTTTGGTCGATAATGCGGAGTCACCTAGTGCAG | 63700 fluorescence intensity (a.u.) |
| GGCATTTGATCTAATCCCATTTTGACGATGATATTATAACCGGAGTCACCTAGTGCAG | 3500 fluorescence intensity (a.u.) |
| TAAATTGAATTTAAACTTACATGTTTTCTAGACTAATATACGGAGTCACCTAGTGCAG | 8580 fluorescence intensity (a.u.) |
| TTTAATTAATCATGTGCTAATAACTTGTCTCGTTTGGTGTCGGAGTCACCTAGTGCAG | 42900 fluorescence intensity (a.u.) |
| TCTGATATTTGATAGTGACATTAATCAATCTTTACTCCATCGGAGTCACCTAGTGCAG | 7140 fluorescence intensity (a.u.) |
| TCTACAAAATGATTAGTTTTAGATAAGCTGAACTTTAGAACGGAGTCACCTAGTGCAG | 4530 fluorescence intensity (a.u.) |
| AAGATAAATAAAATTAATGGTTAGAGGTTTTGTTGTCTCACGGAGTCACCTAGTGCAG | 3410 fluorescence intensity (a.u.) |
| ACCGTTGATTTAGAAAGGGGTTGAGGGGAGGGTAGTAGTACGGAGTCACCTAGTGCAG | 17400 fluorescence intensity (a.u.) |
| GCACGTTAATTATGCATACAACAACAGTGATCCAAGTTAGCGGAGTCACCTAGTGCAG | 17900 fluorescence intensity (a.u.) |
| CATTAATTTGGAGTATTAAACATAGACTACTTACAAAACTCGGAGTCACCTAGTGCAG | 14000 fluorescence intensity (a.u.) |
| ATAGATTTTAGTTAGATGATGGTTGTCAATCTTCACTTGGCGGAGTCACCTAGTGCAG | 11200 fluorescence intensity (a.u.) |
| TAGATGATTATTATGATAGGATTGATTTGTTTAGAGTCTTCGGAGTCACCTAGTGCAG | 46100 fluorescence intensity (a.u.) |
| ATACCTAATCAACGTGTCATTTTGTGCCCCTATCACGGAACGGAGTCACCTAGTGCAG | 12100 fluorescence intensity (a.u.) |
| CGTTAACGTGAGCTATCAACAATCTATCACGTCACACTATCGGAGTCACCTAGTGCAG | 6870 fluorescence intensity (a.u.) |
| TTTAATTTATCAGGTCTATCTGACTGTTCAGCACATACCACGGAGTCACCTAGTGCAG | 17600 fluorescence intensity (a.u.) |
| CATATTTGTACAAATTGACCACCAGAGCTCACACATTGATCGGAGTCACCTAGTGCAG | 4710 fluorescence intensity (a.u.) |
| CTCACTTCCACTAATCACACTCTACAGTCTCACTCCTAGACGGAGTCACCTAGTGCAG | 3600 fluorescence intensity (a.u.) |
| GGACACCCCAATCAGACGTCAACTGTACACTGGAAACACCCGGAGTCACCTAGTGCAG | 3290 fluorescence intensity (a.u.) |
| ATATTTAATTTGATACTACCTATAAACCGCACAAGCTGCACGGAGTCACCTAGTGCAG | 16800 fluorescence intensity (a.u.) |
| TATGCTGATTGAAATCATTCCCATGCAAAAGGGTGCAGTGCGGAGTCACCTAGTGCAG | 48000 fluorescence intensity (a.u.) |
| TAGCGTATAATTAATTAAGTATCATTTATCTATATGTTTTCGGAGTCACCTAGTGCAG | 23200 fluorescence intensity (a.u.) |
| GAATATAATACAATTATAATGTAATTATAGTGTATACGTACGGAGTCACCTAGTGCAG | 5420 fluorescence intensity (a.u.) |
| AGCTAGCTAATTACATGTAAATTAGGGATTTGTTCTTGATCGGAGTCACCTAGTGCAG | 22300 fluorescence intensity (a.u.) |
| CACTGCTAAGTGAAGGTTAATTGGACGTAAAACTTGAAACCGGAGTCACCTAGTGCAG | 4160 fluorescence intensity (a.u.) |
| TTGATTAACATGATTCGTCGTAGGTGTTCAAGTACGCTGACGGAGTCACCTAGTGCAG | 35000 fluorescence intensity (a.u.) |
| TGCCAGTGACAGCGTAATTAACGACTTAATCACACTGTTTCGGAGTCACCTAGTGCAG | 28600 fluorescence intensity (a.u.) |

| Sequence | binding signal |
| --- | --- |
| ATATTGTGATGTCTTATTGATATGACACCATAGACACTGCCGGAGTCACCTAGTGCAG | 3330 fluorescence intensity (a.u.) |
| GGCGTGTGATTTGGGCGGAGGGATCCGGCGATCTGGTTCTCGGAGTCACCTAGTGCAG | 5540 fluorescence intensity (a.u.) |
| CTAAAATTAATCCTAAAATCAAAATCAACCTTAATGTAGTCGGAGTCACCTAGTGCAG | 6850 fluorescence intensity (a.u.) |
| TAGTAATTGATTGCTGCCAAGATTACATTACTGCCCAATACGGAGTCACCTAGTGCAG | 65500 fluorescence intensity (a.u.) |
| CTCGGTAAATTAAAACACTGGTCATCAAACGAGTCTTGAGCGGAGTCACCTAGTGCAG | 3660 fluorescence intensity (a.u.) |
| ACGATTGGATTGGATTCGACTCGACTCAAGAAAAGAAAAGCGGAGTCACCTAGTGCAG | 7300 fluorescence intensity (a.u.) |
| ACTAATAGTAATTAGCTAGATGATTAACTAATTTACCTGGCGGAGTCACCTAGTGCAG | 38700 fluorescence intensity (a.u.) |
| TATATATATATATATATATATATATATATATGGTGGTGTTCGGAGTCACCTAGTGCAG | 25600 fluorescence intensity (a.u.) |
| AATTTGAGTGATTTTGTACATTAGATACCATGGTGCCCGGCGGAGTCACCTAGTGCAG | 16800 fluorescence intensity (a.u.) |
| AATAATTCCGTGACTATAATTAGAAAATAATGGGCCTTAACGGAGTCACCTAGTGCAG | 12900 fluorescence intensity (a.u.) |
| ATTACGCTAATTGAGATGGACGTGCTATAAAATTTTCGAGCGGAGTCACCTAGTGCAG | 29400 fluorescence intensity (a.u.) |
| TTAACTTGCAGTCCTAATTGTAACTGCATTTGATCTCAATCGGAGTCACCTAGTGCAG | 3380 fluorescence intensity (a.u.) |
| AGAGTTTCTGATTGGATAACTCTTGGAAATTCATGCTGCCCGGAGTCACCTAGTGCAG | 22000 fluorescence intensity (a.u.) |
| GTGCTCTAATTATTTGTATCTTACAGATAGATGACAGAGCCGGAGTCACCTAGTGCAG | 19100 fluorescence intensity (a.u.) |
| AATGATAATTACGTAAATTATTTGAATGACACGAATAGTTCGGAGTCACCTAGTGCAG | 28000 fluorescence intensity (a.u.) |
| TCGCTTAATTAATTTGGATTTGGATGCGGATCCCTCGCCTCGGAGTCACCTAGTGCAG | 56000 fluorescence intensity (a.u.) |
| GGAATTGTTAATTACTATGTTTGGAGCTCTGGTGACCGATCGGAGTCACCTAGTGCAG | 17200 fluorescence intensity (a.u.) |
| AGTAAGGCTAATTAATACTATAATATCTTATTGGCATCCTCGGAGTCACCTAGTGCAG | 3370 fluorescence intensity (a.u.) |
| CTAGATTGTTTTACAGTTTCAACATAAACACCAGAAGGCTCGGAGTCACCTAGTGCAG | 26300 fluorescence intensity (a.u.) |
| TGCACAGATTAATCTTAAATGGTTTATAAGAATTACAGCTCGGAGTCACCTAGTGCAG | 5500 fluorescence intensity (a.u.) |
| GCAAAATTACTGCTCGTCAATATATTAGAAGAAAATAGTTCGGAGTCACCTAGTGCAG | 3980 fluorescence intensity (a.u.) |
| TGTTTGCATGATTTTGTAATTGTGTTGTATCCGGTTTTCCCGGAGTCACCTAGTGCAG | 5700 fluorescence intensity (a.u.) |
| ACGACTCTTAATTACTGTAATATGGAAATATGGTTGTATGCGGAGTCACCTAGTGCAG | 13000 fluorescence intensity (a.u.) |
| CCACGAATAAATTTGCAATATTTAGCGGTGATATAGATGCCGGAGTCACCTAGTGCAG | 7470 fluorescence intensity (a.u.) |
| GTTACTAATTAAGTTGCATCATTGTCCATGGTTGTACATCCGGAGTCACCTAGTGCAG | 18300 fluorescence intensity (a.u.) |
| CAAAATTATCTAATTGATGACTATTTCTAAATACACATCACGGAGTCACCTAGTGCAG | 41800 fluorescence intensity (a.u.) |
| TTAATAATCATTGTTTTCTATAAATCCCAATGAATTTACACGGAGTCACCTAGTGCAG | 3980 fluorescence intensity (a.u.) |
